{"source": "PubChem BioAssay (Tox21)", "note": "This list was built around the results that the source calls inconclusive (neither active nor inactive); the mix of calls is not that of the screen. Entries that show only a call come without a potency. Where the call is inconclusive, the potency comes from a doubtful curve fit. Active and inactive are the calls of the source. The call rests on the fitted dose curve; in most records, active means well fitted cell-killing curve with a large enough effect in the repeat runs; inconclusive means weak or mixed curves; inactive means no such curve, though single readings can be large or run the other way. Potency means the concentration at half of the fitted maximal effect; tags describe the fitted curve by direction and shape."}
{"test": "qHTS assay for identifying genotoxic compounds that show differential cytotoxicity against isogenic chicken DT40 cell lines with known DNA damage response pathways - Rad54/Ku70 mutant cell line (AID 743015); further: nearly all actives have a fitted effect of over 60% in size", "details": "DT40 Rad54/Ku70 mutant viability, CellTiter-Glo, 40 h; series mostly up to 66.8 µM"}
{"smiles": "Cc1cc(C)c(C)c(C)c1", "Potency": "inactive"}
{"smiles": "CC(COCCO)OCCO", "note": "(configuration not stated)", "Potency": "inactive"}
{"smiles": "C=CC(C)(O)CC/C=C(\\C)CCC=C(C)C", "note": "(configuration not stated)", "Potency": "inconclusive: 5.45 µM [cytotoxic, full curve]"}
{"smiles": "CCCn1cnc2c1c(=O)n(CCCCC(C)=O)c(=O)n2C", "Potency": "inactive"}
{"smiles": "O=S(=O)(c1ccccc1)c1ccc(Cl)cc1", "Potency": "active: 48.6 µM"}
{"smiles": "CCC(C)=O", "Potency": "inactive"}
{"smiles": "COCCOCCOCCOC", "Potency": "inactive"}
{"smiles": "OCCOCCN1CCN(C2=Nc3ccccc3Sc3ccccc32)CC1", "Potency": "inconclusive: 7.5 µM [cytotoxic, partial curve]"}
{"smiles": "C(/C=C/C=C/Nc1ccccc1)=Nc1ccccc1", "Potency": "inconclusive: 19.3 µM [cytotoxic, full curve]"}
{"smiles": "CC(C)C(=O)O", "Potency": "inactive"}
{"smiles": "Cc1c(Nc2ncccc2C(=O)O)cccc1C(F)(F)F", "Potency": "active: 11.4 µM"}
{"smiles": "CC(=O)OC(C)OC(C)=O", "Potency": "inconclusive: 70.7 µM [cytotoxic, single point]"}
{"smiles": "C[C@@H](O)[C@H]1C(=O)N2C(C(=O)O)=C(SCCN=CN)C[C@H]12", "Potency": "inactive"}
{"smiles": "CC(N)CN", "note": "(configuration not stated)", "Potency": "inactive"}
{"smiles": "Cc1ccc(C(=O)Nc2ccc(S(=O)(=O)O)c3cc(S(=O)(=O)O)cc(S(=O)(=O)O)c23)cc1NC(=O)c1cccc(NC(=O)Nc2cccc(C(=O)Nc3cc(C(=O)Nc4ccc(S(=O)(=O)O)c5cc(S(=O)(=O)O)cc(S(=O)(=O)O)c45)ccc3C)c2)c1", "Potency": "inconclusive: 33.5 µM [cytotoxic, single point]"}
{"smiles": "c1ccc(OCc2ccc(CCCN3CCOCC3)cc2)cc1", "Potency": "active: 0.596 µM"}
{"smiles": "CC1CCC(C(C)C)C(O)C1", "note": "(configuration not stated)", "Potency": "inactive"}
